# Measured values reported in the supplement of paper PMC8728848.
# Some of the results follow.
# Experiments:
# Assay in all cases: glycan array binding signal (z-score within array); higher = stronger binding
# Settings in all cases: glycan notation: IUPAC condensed, linker removed
# [1] = molecular target: Gal6S(b1-3)GlcNAc6S
# In short: (§1)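 The binding signal is a Z-score computed within each array and averaged over linkers. Arrays of the same protein sequence at different concentrations or buffers were also averaged together. Data originate from 3228 arrays in the Consortium for Functional Glycomics database, kept only where the protein sequence was available.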
# [2] = molecular target: Gal6S(b1-4)Glc
# In short: as §1
# [3] = molecular target: Gal6S(b1-4)Glc6S
# In short: as §1
# [4] = molecular target: Gal6S(b1-4)GlcNAc
# In short: as §1
# [5] = molecular target: Gal6S(b1-4)GlcNAc6S
# In short: as §1
# [6] = molecular target: GalNAc(a1-3)Gal
# In short: as §1
# [7] = molecular target: GalNAc(a1-3)GalNAc
# In short: as §1
# [8] = molecular target: GalNAc(a1-3)GalNAc(a1-3)Gal(a1-4)Gal(b1-4)GlcNAc
# In short: as §1
# [9] = molecular target: GalNAc(a1-3)GalNAc(b1-3)Gal(a1-4)Gal(b1-4)Glc
# In short: as §1
# [10] = molecular target: GalNAc(a1-3)GalNAc(b1-3)Gal(a1-4)Gal(b1-4)GlcNAc
# In short: as §1
# [11] = molecular target: GalNAc(b1-3)Gal
# In short: as §1
# [12] = molecular target: GalNAc(b1-3)Gal(a1-4)Gal(b1-4)GlcNAc
# In short: as §1
# [13] = molecular target: GalNAc(b1-3)Gal(a1-4)Gal(b1-4)GlcNAc(b1-3)Gal(b1-4)Glc
# In short: as §1
# [14] = molecular target: GalNAc(b1-3)Gal(a1-6)Gal(b1-4)Glc
# In short: as §1
# [15] = molecular target: GalNAc(b1-3)GalNAc
# In short: as §1
# [16] = molecular target: GalNAc(b1-3)GlcNAc
# In short: as §1
# [17] = molecular target: GalNAc(b1-4)Gal(b1-4)Glc
# In short: as §1
# [18] = molecular target: GalNAc(b1-4)GlcNAc
# In short: as §1
# [19] = molecular target: GalNAc(b1-4)GlcNAc(b1-2)Man
# In short: as §1
# [20] = molecular target: GalNAc(b1-4)GlcNAc(b1-2)Man(a1-3)[GalNAc(b1-4)GlcNAc(b1-2)Man(a1-6)]Man(b1-4)GlcNAc(b1-4)GlcNAc
# In short: as §1
# [21] = molecular target: GalNAc(b1-4)GlcNAc(b1-3)GalNAc(b1-4)GlcNAc
# In short: as §1
# [22] = molecular target: GalNAc(b1-4)GlcNAc6S
# In short: as §1
# [23] = molecular target: GalNAc(b1-6)GalNAc
# In short: as §1
# [24] = molecular target: GalNAc3S(b1-4)GlcNAc
# In short: as §1
# [25] = molecular target: GalNAc3S(b1-4)GlcNAc3S
# In short: as §1
# [26] = molecular target: GalNAc3S(b1-4)[Fuc(a1-3)]GlcNAc
# In short: as §1
# [27] = molecular target: GalNAc4S6S(b1-4)GlcNAc
# In short: as §1
# [28] = molecular target: GalNAc6S(b1-4)GlcNAc
# In short: as §1
# [29] = molecular target: Glc(a1-4)Glc
# In short: as §1
# [30] = molecular target: Glc(a1-4)Glc(a1-4)Glc(a1-4)Glc
# In short: as §1
# [31] = molecular target: Glc(a1-6)Glc(a1-6)Glc
# In short: as §1
# [32] = molecular target: Glc(a1-6)Glc(a1-6)Glc(a1-6)Glc
# In short: as §1
# [33] = molecular target: Glc(b1-4)Glc
# In short: as §1
# [34] = molecular target: Glc(b1-6)Glc
# In short: as §1
# [35] = molecular target: GlcA(b1-3)Gal
# In short: as §1
# [36] = molecular target: GlcA(b1-3)GlcNAc
# In short: as §1
# [37] = molecular target: GlcA(b1-6)Gal
# In short: as §1
# [38] = molecular target: GlcA3S(b1-3)Gal(b1-4)GlcNAc(b1-2)Man
# In short: as §1
# [39] = molecular target: GlcA3S(b1-3)Gal(b1-4)GlcNAc(b1-3)Gal(b1-4)Glc
# In short: as §1
# [40] = molecular target: GlcNAc(a1-3)Gal(b1-4)GlcNAc
# In short: as §1
# [41] = molecular target: GlcNAc(a1-4)Gal(b1-3)GlcNAc
# In short: as §1
# [42] = molecular target: GlcNAc(a1-4)Gal(b1-4)GalNAc
# In short: as §1
# [43] = molecular target: GlcNAc(a1-4)Gal(b1-4)GlcNAc
# In short: as §1
# [44] = molecular target: GlcNAc(a1-4)Gal(b1-4)GlcNAc(b1-3)Gal(b1-4)Glc
# In short: as §1
# [45] = molecular target: GlcNAc(a1-4)Gal(b1-4)GlcNAc(b1-3)Gal(b1-4)GlcNAc
# In short: as §1
# [46] = molecular target: GlcNAc(a1-4)Gal(b1-4)GlcNAc(b1-3)Gal(b1-4)GlcNAc(b1-3)Gal(b1-4)GlcNAc
# In short: as §1
# [47] = molecular target: GlcNAc(a1-4)Gal(b1-4)GlcNAc(b1-3)Gal(b1-4)[Fuc(a1-3)]GlcNAc(b1-3)Gal(b1-4)[Fuc(a1-3)]GlcNAc
# In short: as §1
# [48] = molecular target: GlcNAc(a1-6)Gal(b1-4)GlcNAc
# In short: as §1
# [49] = molecular target: GlcNAc(b1-2)Gal(b1-3)GalNAc
# In short: as §1
# [50] = molecular target: GlcNAc(b1-2)Man(a1-3)[GlcNAc(b1-2)Man(a1-6)]Man(b1-4)GlcNAc(b1-4)GlcNAc
# In short: as §1
# [51] = molecular target: GlcNAc(b1-2)Man(a1-3)[GlcNAc(b1-2)Man(a1-6)]Man(b1-4)GlcNAc(b1-4)[Fuc(a1-6)]GlcNAc
# In short: as §1
# [52] = molecular target: GlcNAc(b1-2)Man(a1-3)[GlcNAc(b1-4)][GlcNAc(b1-2)Man(a1-6)]Man(b1-4)GlcNAc(b1-4)GlcNAc
# In short: as §1
# [53] = molecular target: GlcNAc(b1-2)Man(a1-3)[GlcNAc(b1-4)][GlcNAc(b1-2)Man(a1-6)]Man(b1-4)GlcNAc(b1-4)[Fuc(a1-6)]GlcNAc
# In short: as §1
# [54] = molecular target: GlcNAc(b1-2)[GlcNAc(b1-4)]Man(a1-3)[GlcNAc(b1-2)Man(a1-6)]Man(b1-4)GlcNAc(b1-4)GlcNAc
# In short: as §1
# [55] = molecular target: GlcNAc(b1-2)[GlcNAc(b1-4)]Man(a1-3)[GlcNAc(b1-4)][GlcNAc(b1-2)Man(a1-6)]Man(b1-4)GlcNAc(b1-4)GlcNAc
# In short: as §1
# [56] = molecular target: GlcNAc(b1-2)[GlcNAc(b1-4)]Man(a1-3)[GlcNAc(b1-4)][GlcNAc(b1-2)[GlcNAc(b1-6)]Man(a1-6)]Man(b1-4)GlcNAc(b1-4)GlcNAc
# In short: as §1
# [57] = molecular target: GlcNAc(b1-2)[GlcNAc(b1-4)]Man(a1-3)[GlcNAc(b1-4)][GlcNAc(b1-2)[GlcNAc(b1-6)]Man(a1-6)]Man(b1-4)GlcNAc(b1-4)[Fuc(a1-6)]GlcNAc
# In short: as §1
# [58] = molecular target: GlcNAc(b1-2)[GlcNAc(b1-6)]Man(a1-6)[GlcNAc(b1-2)Man(a1-3)]Man(b1-4)GlcNAc(b1-4)GlcNAc
# In short: as §1
# [59] = molecular target: GlcNAc(b1-2)[GlcNAc(b1-6)]Man(a1-6)[GlcNAc(b1-2)Man(a1-3)]Man(b1-4)GlcNAc(b1-4)[Fuc(a1-6)]GlcNAc
# In short: as §1
# [60] = molecular target: GlcNAc(b1-2)[GlcNAc(b1-6)]Man(a1-6)[GlcNAc(b1-2)Man(a1-3)][GlcNAc(b1-4)]Man(b1-4)GlcNAc(b1-4)GlcNAc
# In short: as §1
binder,measurement,setting,value
"Siglec-F (Mus musculus), Q920G3 (protein) MRWAWLLPLLWAGCLATDGYSLSVTGSVTVQEGLCVFVACQVQYPNSKGPVFGYWFREGANIFSGSPVATNDPQRSVLKEAQGRFYLMGKENSHNCSLDIRDAQKIDTGTYFFRLDGSVKYSFQKSMLSVLVIALTEVPNIQVTSTLVSGNSTKLLCSVPWACEQGTPPIFSWMSSALTSLGHRTTLSSELNLTPRPQDNGTNLTCQVNLPGTGVTVERTQQLSVIYAPQKMTIRVSWGDDTGTKVLQSGASLQIQEGESLSLVCMADSNPPAVLSWERPTQKPFQLSTPAELQLPRAELEDQGKYICQAQNSQGAQTASVSLSIRSLLQLLGPSCSFEGQGLHCSCSSRAWPAPSLRWRLGEGVLEGNSSNGSFTVKSSSAGQWANSSLILSMEFSSNHRLSCEAWSDNRVQRATILLVSGPKVSQAGKSETSRGTVLGAIWGAGLMALLAVCLCLIFFTVKVLRKKSALKVAATKGNHLAKNPASTINSASITSSNIALGYPIQGHLNEPGSQTQKEQPPLATVPDTQKDEPELHYASLSFQGPMPPKPQNTEAMKSVYTEIKIHKC",glycan array binding signal (z-score),[1],-0.117
same,glycan array binding signal (z-score),[2],-0.101
same,glycan array binding signal (z-score),[3],-0.11
same,glycan array binding signal (z-score),[4],-0.095
same,glycan array binding signal (z-score),[5],-0.104
same,glycan array binding signal (z-score),[6],-0.051
same,glycan array binding signal (z-score),[7],-0.129
same,glycan array binding signal (z-score),[8],-0.178
same,glycan array binding signal (z-score),[9],-0.124
same,glycan array binding signal (z-score),[10],-0.103
same,glycan array binding signal (z-score),[11],-0.111
same,glycan array binding signal (z-score),[12],-0.004
same,glycan array binding signal (z-score),[13],-0.13
same,glycan array binding signal (z-score),[14],-0.124
same,glycan array binding signal (z-score),[15],-0.126
same,glycan array binding signal (z-score),[16],-0.154
same,glycan array binding signal (z-score),[17],-0.099
same,glycan array binding signal (z-score),[18],-0.078
same,glycan array binding signal (z-score),[19],-0.008
same,glycan array binding signal (z-score),[20],-0.024
same,glycan array binding signal (z-score),[21],-0.104
same,glycan array binding signal (z-score),[22],-0.135
same,glycan array binding signal (z-score),[23],-0.11
same,glycan array binding signal (z-score),[24],-0.135
same,glycan array binding signal (z-score),[25],-0.159
same,glycan array binding signal (z-score),[26],-0.002
same,glycan array binding signal (z-score),[27],-0.162
same,glycan array binding signal (z-score),[28],-0.126
same,glycan array binding signal (z-score),[29],-0.123
same,glycan array binding signal (z-score),[30],-0.094
same,glycan array binding signal (z-score),[31],-0.121
same,glycan array binding signal (z-score),[32],-0.102
same,glycan array binding signal (z-score),[33],-0.125
same,glycan array binding signal (z-score),[34],-0.12
same,glycan array binding signal (z-score),[35],-0.13
same,glycan array binding signal (z-score),[36],-0.121
same,glycan array binding signal (z-score),[37],-0.117
same,glycan array binding signal (z-score),[38],-0.141
same,glycan array binding signal (z-score),[39],-0.157
same,glycan array binding signal (z-score),[40],-0.11
same,glycan array binding signal (z-score),[41],-0.117
same,glycan array binding signal (z-score),[42],-0.121
same,glycan array binding signal (z-score),[43],-0.125
same,glycan array binding signal (z-score),[44],-0.121
same,glycan array binding signal (z-score),[45],-0.146
same,glycan array binding signal (z-score),[46],-0.103
same,glycan array binding signal (z-score),[47],-0.074
same,glycan array binding signal (z-score),[48],-0.084
same,glycan array binding signal (z-score),[49],-0.111
same,glycan array binding signal (z-score),[50],-0.124
same,glycan array binding signal (z-score),[51],-0.115
same,glycan array binding signal (z-score),[52],-0.115
same,glycan array binding signal (z-score),[53],-0.137
same,glycan array binding signal (z-score),[54],-0.119
same,glycan array binding signal (z-score),[55],-0.088
same,glycan array binding signal (z-score),[56],-0.116
same,glycan array binding signal (z-score),[57],-0.152
same,glycan array binding signal (z-score),[58],-0.097
same,glycan array binding signal (z-score),[59],-0.158
same,glycan array binding signal (z-score),[60],-0.09
